Test results from PMC9911399, “Two distinct binding modes provide the RNA-binding protein RbFox with extraordinary sequence specificity”.
Numbering of substitutions follows the chain as printed; changes in the protein carry UniProt numbers. Some of the results follow.

B1: CCAAAAG (DNA:RNA)
RNA: GGGAGACCGGAAUUCAGAUUGUCCCCAAAAGUUAAAUCCCGUCGUAGCCACCA
DNA 1: CAATCTGAATTCCGGTCTCCC
DNA 2: TGGTGGCTACGACGGGATT
B2: AAUUGCC (DNA:RNA)
RNA: GGGAGACCGGAAUUCAGAUUGUCCAAUUGCCUUAAAUCCCGUCGUAGCCACCA
DNA 1: CAATCTGAATTCCGGTCTCCC
DNA 2: TGGTGGCTACGACGGGATT
B3: AAAAAGG (DNA:RNA)
RNA: B1 RNA with C25A, C26A, A30G
DNA 1: CAATCTGAATTCCGGTCTCCC
DNA 2: TGGTGGCTACGACGGGATT
B4: AUGUCAG (DNA:RNA)
RNA: B2 RNA with A26U, U27G, G29C, C30A, C31G
DNA 1: CAATCTGAATTCCGGTCTCCC
DNA 2: TGGTGGCTACGACGGGATT
B5: GUUUUAA (DNA:RNA)
RNA: B2 RNA with A25G, A26U, G29U, C30A, C31A
DNA 1: CAATCTGAATTCCGGTCTCCC
DNA 2: TGGTGGCTACGACGGGATT
B6: UAGCGGG (DNA:RNA)
RNA: B2 RNA with A25U, U27G, U28C, C30G, C31G
DNA 1: CAATCTGAATTCCGGTCTCCC
DNA 2: TGGTGGCTACGACGGGATT
B7: GCACGUA (DNA:RNA)
RNA: B1 RNA with C25G, A28C, A29G, A30U, G31A
DNA 1: CAATCTGAATTCCGGTCTCCC
DNA 2: TGGTGGCTACGACGGGATT
B8: GGGUAAC (DNA:RNA)
RNA: B2 RNA with A25G, A26G, U27G, G29A, C30A
DNA 1: CAATCTGAATTCCGGTCTCCC
DNA 2: TGGTGGCTACGACGGGATT
B9: AAUGACU (DNA:RNA)
RNA: B2 RNA with U28G, G29A, C31U
DNA 1: CAATCTGAATTCCGGTCTCCC
DNA 2: TGGTGGCTACGACGGGATT

Each binder was assayed against T1, RBFOX1 RRM RbFoxmut (Fox-RRM*) (Homo sapiens, UniProt Q9NWB1 109-208, R118D;E147R;N151S;E152T) (assay: EMSA; HiTS-Eq, 1 nM pool, 10 min; buffer printed only for the single-RNA assays: 10 mM Tris pH 7.5, 150 mM NaCl, 3.4 mM EDTA, 0.001% NP-40, 30 C). Settings: tags: His6 N-terminal (pET28a); label: 5' 32P.
T1 sequence: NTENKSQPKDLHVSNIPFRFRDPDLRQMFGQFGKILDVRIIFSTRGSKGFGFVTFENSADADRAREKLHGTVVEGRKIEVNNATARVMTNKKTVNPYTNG
Outline: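 These values rest on relative association constants, computed from read-count changes of each RNA species versus the control reaction and normalised to the cognate motif. Reads came from free RNA recovered by 8% native PAGE after purified RbFox RRM (wild type or mutant) at increasing concentrations was equilibrated for 10 min in 50 µL with 1 nM of a 5′-radiolabelled pool with 7 randomized nucleotides and DNA-annealed flanks.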

Compared with B1, B2 is higher in binding signal: 0.0785 KA relative to UGCAUGU for the first, 0.207 KA relative to UGCAUGU for the second.

First: B3
Second: B4
The binding signal of the first is lower: 0.0629 KA relative to UGCAUGU for the first, 0.129 KA relative to UGCAUGU for the second.

Compared with B5, B6 is lower in binding signal: 0.131 KA relative to UGCAUGU for the first, 0.0899 KA relative to UGCAUGU for the second.

Compared with B7, B8 is lower in binding signal: 0.382 KA relative to UGCAUGU for the first, 0.0754 KA relative to UGCAUGU for the second.

In the case of B9, the binding signal is reported as 0.0625 KA relative to UGCAUGU.
